# The supplement of paper PMC11417369
# ± gives the standard deviation of the averaged measurements. The list shows a part of the results.
# Tested on: PfAP2-I AP2 domain 3 (GST-tagged)
# Experiment: gcPBM binding intensity (ln(normalized median fluorescence intensity)); higher = stronger DNA binding
# Summary of the method: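 Plasmodium falciparum DNA-binding domains carrying a GST tag were expressed in E. coli and applied for 1 h, at about 25 μg on average, to an Agilent 4 × 180k array. The array held primer-extended double-stranded 36-bp intergenic genomic probes together with negative controls, and binding took place in 1× PBS with 1% milk, 0.2 mg/ml BSA, 0.5% salmon testes DNA and 0.03% Triton X-100. An Alexa488 anti-GST antibody detected bound protein, and the array was scanned at 488 nm. Binding intensity is taken as the highest Masliner-normalised natural-log median intensity across replicate spots of either probe orientation.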
row,Sequence,gcPBM binding intensity (ln)
1,AAAACTATAATAAAAGGTACACATTTATTTTTTTCT [XGTACX_site730],7.74 ± 0.3
2,TTTTTTTTTTTTTTTACACACACAAAATATTATATG [CACACA_site2471],8.19 ± 0.6
3,TATTATTTACCTTGCTAGTTCGTTCCAAATTTTATG [XGTACX_negctrl_site197],8.06 ± 0.71
4,ATGTTTGATGCTACACGTACACACCTTGCAAATATT [XGTACX_site1644],8.61 ± 0.53
5,TATATTATTCATTAAGCACACATTATTTTTATAATA [CACACA_site6056],8.645 ± 0.007
6,AAAACAAATTTTAATGAGAATATGAAAAAAAAATAT [XGTACX_negctrl_site268],7.98 ± 0.58
7,CACATTATGTATCATACACACAAATAAATATAGAAT [CACACA_site609],7.91 ± 0.46
8,TATTCTAATATATGCATACACACAAATGTGAATATA [CACACA_site2143],7.79 ± 0.59
9,TTTATATGTATTAAGTGTACACATATAATGTGTTTT [XGTACX_site4890],7.69 ± 0.37
10,ATATTATGTCTACATAAACACACATATATATAAAAA [CACACA_site7976],7.83 ± 0.46
11,AATAGTTATAAATATAAATATATATATATATATATA [CACACA_negctrl_site414],9.29 ± 0.58
12,AATAAATATTCATTTTGTACATATTTTTCGTATATG [XGTACX_site6104],7.55 ± 0.59
13,TTACCATAAGTATGTGGTACACTTTAAATGAAGATA [XGTACX_site6972],7.8 ± 0.38
14,TATATATATAAATACACACACACCCTAAAAATATAT [CACACA_site4970],8.45 ± 0.57
15,TTAACATCAAAATATGCACACAAACAATTAGCGGTA [CACACA_site8801],8.49 ± 0.52
16,TCATATTTTACATATGCATGTTAATAATACAAACAT [TGCATGCA_site994],7.58 ± 0.57
17,TTTTTTTCGTATATTACACACTATAAATAGAAATTA [CACACA_site6278],8.01 ± 0.42
18,GTATAACAACTGATAAAAGAAAAAAAATTTATTATT [CACACA_negctrl_site377],7.5 ± 0.64
19,ATAATATTTTTAAACTGTACTTTTATAAACACTTAT [XGTACX_site2625],7.98 ± 0.45
20,ATTTATTTATGTATTTGTACGTATATATTTATGCAT [XGTACX_site5218],7.99 ± 0.23
21,ATTTATTTGAAGAATTGTACTAAATTATATAGCGGT [XGTACX_site4998],7.94 ± 0.49
22,TATAAAAAAATATATATATATATTATATGTGTAGAA [TGCATGCA_negctrl_site391],7.93 ± 0.59
23,ATTTTAATTTGTTATACACACACAAAAAAAATTATA [CACACA_site9306],7.88 ± 0.35
24,TATATCAAAATACATACACACATTTGTATTTACATT [CACACA_site5485],7.62 ± 0.56
